Reference: the supplement of paper PMC10126150
Values marked as one replicate rest on one cluster of the flow cell; about a third of the high ones do not repeat.

Each sequence was assayed on ATP (assay: switch fluorescence ratio, 500 uM ATP over buffer (Cy3 cluster intensity, sum of 5 cycles each) (fold (ratio)); higher = stronger signal-on switching upon ATP binding; sequences stand for … in TCGTCGGCAGCGTCAGATGTGTATAAGAGACAGTTTTTTTTTTTTTTTTTTTTTTTTT…TC). Details: aptamer strand: ATP DNA aptamer (quencher-CACCTGGGGGAGTATTGCGGAGGAAGG + anchor), 100 nM annealed; ATP concentration: 500 uM; one replicate.
Summary of the method: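 After annealing to 100 nM quencher-labelled ATP aptamer, Cy3-labelled switching-strand clusters on a modified Illumina MiSeq flow-cell were imaged in selection buffer. A second image followed after 15 min with 500 uM ATP at 22 °C, and five such buffer/ATP cycles were done, each separated by NaOH stripping and re-annealing. The fluorescence ratio, averaged per switch-domain sequence, is summed target-cycle over summed buffer-cycle Cy3 intensity per cluster, with clusters outside 100-1000 RFU excluded.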
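Also: ATP exposure 15 min at 22 °C before imaging.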

| Sequence | switch fluorescence ratio |
| --- | --- |
| CTTGCTAAC | 1.26 |
| CTTGGGCGAG | 0.997 |
| CTTGGGTAAC | 1.4 |
| CTTGGTATAG | 0.982 |
| CTTGGTTTC | 0.978 |
| CTTGTAACAG | 1.04 |
| CTTGTCACGA | 1.02 |
| CTTGTCAGCC | 0.998 |
| CTTGTCTTCT | 1 |
| CTTTAAAATT | 1.03 |
| CTTTAACTGT | 0.998 |
| CTTTAAGACT | 1 |
| CTTTACATAA | 1.03 |
| CTTTACTGCT | 0.939 |
| CTTTACTGGT | 1.03 |
| CTTTAGTGTT | 1.01 |
| CTTTATAACG | 0.98 |
| CTTTATATC | 1.01 |
| CTTTCTAAAT | 1.01 |
| CTTTGAGGGA | 1.03 |
| CTTTGATACC | 0.98 |
| CTTTGCTCAT | 1.02 |
| CTTTGGCCC | 1.13 |
| CTTTGTAAC | 1.09 |
| CTTTGTGGTG | 0.95 |
| CTTTTATATA | 1 |

| Sequence | switch fluorescence ratio |
| --- | --- |
| CTTTTCAGTG | 0.948 |
| CTTTTGATCT | 0.961 |
| CTTTTGCTCT | 1.01 |
| CTTTTGGTGG | 1 |
| CTTTTGTACC | 1.01 |
| CTTTTTATGC | 1.02 |
| CTTTTTGGTC | 1 |
| GAAAAACTAT | 1.31 |
| GAAAAATCTA | 0.958 |
| GAAAACCATG | 1.04 |
| GAAAACTACG | 1.58 |
| GAAAAGGTGA | 0.967 |
| GAAAATGTTA | 0.865 |
| GAAACAACAG | 1.05 |
| GAAACAACGT | 1.02 |
| GAAACAAGGT | 0.997 |
| GAAACCGCGC | 3.16 |
| GAAACGTTG | 0.956 |
| GAAACTGTGA | 1.05 |
| GAAACTTTTA | 0.995 |
| GAAAGAAAGA | 0.958 |
| GAAAGATCGT | 1 |
| GAAAGGAAAT | 1.01 |
| GAAAGTCTGA | 0.996 |
| GAAAGTTAGT | 1.05 |
| GAAATATATG | 1.03 |

| Sequence | switch fluorescence ratio |
| --- | --- |
| GAAATATGGG | 0.96 |
| GAAATCATAA | 1.04 |
| GAAATCCACG | 1.02 |
| GAAATGGGGC | 0.936 |
| GAAATTAGT | 1.05 |
| GAACACACTT | 1.28 |
| GAACACGATA | 1.32 |
| GAACATATAG | 0.999 |
| GAACCGTAT | 1.19 |
| GAACCGTCGT | 1.04 |
| GAACGAGACG | 1.05 |
| GAACGGAGCG | 1.02 |
| GAACGTATCA | 0.976 |
| GAACGTGAGC | 1.08 |
| GAACTCGTGC | 0.975 |
| GAACTGGACA | 1.11 |
| GAACTTCATA | 0.967 |
| GAAGAATATG | 0.995 |
| GAAGACTGAG | 0.979 |
| GAAGATGAAG | 0.936 |
| GAAGCAAGGT | 1.63 |
| GAAGCAGTCA | 1.03 |
| GAAGCCTGAT | 1.04 |
| GAAGCTCATT | 0.975 |
| GAAGCTCTGT | 1.04 |
| GAAGCTGTCA | 0.987 |

| Sequence | switch fluorescence ratio |
| --- | --- |
| GAAGGCATG | 0.973 |
| GAAGGCGGTG | 1.03 |
| GAAGGCTGGT | 1.03 |
| GAAGGTACAT | 0.937 |
| GAAGTAGGAT | 0.96 |
| GAAGTCAACG | 0.971 |
| GAAGTGGAAG | 0.984 |
| GAAGTGGCA | 0.955 |
| GAAGTGTCG | 1.1 |
| GAAGTTAAGG | 0.956 |
| GAAGTTAATT | 0.962 |
| GAAGTTAGAC | 1.34 |
| GAAGTTCGGG | 1 |
| GAAGTTGGA | 1.01 |
| GAATAAGCAC | 1.29 |
| GAATAGCTTA | 1.02 |
| GAATAGCTTT | 0.988 |
| GAATAGTCGT | 0.995 |
| GAATATCTAT | 0.994 |
| GAATATGTTT | 0.972 |
| GAATCCATAT | 1.01 |
| GAATCCCCGT | 1.03 |
| GAATCGGATT | 0.936 |
| GAATCGGTGG | 1.1 |
| GAATCGTCGG | 1.05 |
| GAATCTAACA | 0.976 |

| Sequence | switch fluorescence ratio |
| --- | --- |
| GAATCTACTA | 1.05 |
| GAATCTGTCT | 1.04 |
| GAATGCATCT | 1.03 |
| GAATGCGACC | 1.51 |
| GAATGCTTCT | 0.997 |
| GAATGCTTGT | 1.01 |
| GAATGTGCTC | 0.952 |
| GAATTAAGCA | 1.03 |
| GAATTACGAG | 1.02 |
| GAATTATGTA | 0.931 |
| GAATTCAAAT | 1.01 |
| GAATTCAGCG | 0.961 |
| GAATTCGCCG | 0.976 |
| GAATTGCAGC | 0.975 |
| GAATTGGGGT | 1.03 |
| GAATTGTAAA | 0.997 |
| GAATTGTAAC | 0.951 |
| GAATTGTTTC | 0.994 |
| GAATTTTCAT | 1 |
| GACAAAAGGA | 1.02 |
| GACAAAGGTT | 1.04 |
| GACAACGTGA | 1.19 |
| GACAACTA | 1.04 |
| GACAAGTTTT | 0.985 |
| GACACCTGCG | 1.02 |
| GACACGAAG | 0.947 |

| Sequence | switch fluorescence ratio |
| --- | --- |
| GACACGGGG | 1.17 |
| GACACTAGCC | 1.07 |
| GACACTTCA | 0.985 |
| GACAGAAAG | 1.03 |
| GACAGAGCCG | 1.01 |
| GACAGAGTTG | 1.03 |
| GACAGC | 1.31 |
| GACAGCCGCA | 1.18 |
| GACAGGTGTC | 1.25 |
| GACAGTAACT | 1.08 |
| GACAGTGAGC | 1.01 |
| GACAGTGGTG | 0.982 |
| GACAGTGTCG | 1.04 |
| GACAGTTAAT | 0.988 |
| GACATACCCT | 1.4 |
| GACATCACGC | 1.37 |
| GACATCCTGG | 0.979 |
| GACATGATTT | 0.981 |
| GACATGTCGA | 0.957 |
| GACATTGGTA | 0.97 |
| GACATTGGTC | 0.978 |
| GACCAAGATC | 1.16 |
| GACCAAGCTA | 1.17 |
| GACCACCCCA | 1.07 |
| GACCAGGGA | 1.09 |
| GACCAGGGCA | 1.08 |

| Sequence | switch fluorescence ratio |
| --- | --- |
| GACCAGTTTT | 0.983 |
| GACCCACCCC | 1.49 |
| GACCCGTGAG | 0.991 |
| GACCCTCATT | 0.974 |
| GACCGAAGGG | 1.11 |
| GACCGCGAAG | 1.03 |
| GACCGCGGTT | 1.05 |
| GACCGCTTGT | 1.06 |
| GACCGTGGAG | 0.997 |
| GACCTAAGGA | 1.06 |
| GACCTAGAAG | 1.02 |
| GACCTAGTAC | 1.25 |
| GACCTATAAA | 1 |
| GACCTATTAT | 1.01 |
| GACCTGAGG | 1.04 |
| GACCTTGAAG | 0.979 |
| GACCTTTACC | 1.38 |
| GACGAAAACA | 0.986 |
| GACGACGG | 1.05 |
| GACGACTTGC | 1.05 |
| GACGAGAAGA | 1.1 |
| GACGAGGAGT | 0.99 |
| GACGATGTAG | 1 |
| GACGCATCGT | 1.2 |
| GACGCCCCCA | 2.05 |
| GACGCGGGTT | 1.03 |

| Sequence | switch fluorescence ratio |
| --- | --- |
| GACGCGGTTG | 1.04 |
| GACGCGTAGC | 1.06 |
| GACGCTAGAG | 1.11 |
| GACGGAAATC | 1.42 |
| GACGGCCCTA | 1.02 |
| GACGGGAAG | 1.03 |
| GACGGGAGGT | 0.985 |
| GACGGGCTCA | 1.01 |
| GACGGTAAGA | 1.06 |
| GACGGTCGTG | 0.997 |
| GACGTAGGC | 1.01 |
| GACGTGTAAG | 0.994 |
| GACGTGTGGA | 1 |
| GACGTGTTGC | 1.05 |
| GACGTTAATG | 0.978 |
| GACGTTCCTT | 0.989 |
| GACGTTTCTT | 0.95 |
| GACTAACGAT | 1.23 |
| GACTAACTCA | 1.08 |
